Test results published in PubChem BioAssay AID686978 (National Center for Advancing Translational Sciences (NCATS), 2013).
In all, about 420,000 compounds went through this assay and about 64,000 (15%) were called active. The shares of active, inactive and inconclusive entries below differ from those in the screen. Calls come from the whole dose curve; as a rule, active = well fitted inhibition curve with a large enough effect; inconclusive = small, poorly fitted or top-dose-only effect; inactive = flat fitted curve, though single readings scatter. Potencies of inconclusive entries are left out as doubtful fits.

Test: qHTS for Inhibitors of human tyrosyl-DNA phosphodiesterase 1 (TDP1): qHTS in cells in absence of CPT; note: nearly all actives have a fitted effect of over 55% in size
Conditions: DT40 Tdp1-/- hTDP1 cells, no CPT, ATP luminescence, 48 h; activity change, negative = growth inhibition: at 46.2 µM (top of the series) unless noted
Outline: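 Chicken DT40 Tdp1-/- cells complemented with human TDP1, screened without camptothecin (DMSO vehicle only), 400 cells/well. Compounds pin-transferred, cells incubated at 37 °C for at least 48 hr. Growth read as ATP-dependent luminescence (CellTiter-Glo, 30 min at RT).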
% is set by controls: 0 for no effect and ±100 for the full control effect; potency is the fitted concentration of half-maximal effect; tags give direction and shape of the fitted curve.

| SMILES | Potency | activity change, negative = growth inhibition |
| --- | --- | --- |
| CCCc1nc2oc3c(NCC4CCCO4)ncnc3c2c2c1COC(C)(C)C2 (stereo not drawn) | inconclusive [inhibitor, single point] |  |
| CCCOc1ccc(C2C(=O)N(C3CCCCC3)CC(=O)N2CCc2ccccc2)cc1OC (stereo not drawn) | inconclusive [inhibitor, full curve, poor fit] |  |
| Clc1cccc(-n2ncc3c(NCCc4ccccc4)ncnc32)c1 | inconclusive [inhibitor, single point] |  |
| Cc1ccc(N2CCN(/N=C/c3ccncc3)CC2)cc1 | active: 18.4 µM |  |
| COc1ccc(OCCn2cnc3ccccc32)cc1 | inconclusive [inhibitor, single point] |  |
| CCCCCNC(=O)c1cc2c(=O)n3ccccc3nc2n1C | inconclusive [inhibitor, partial curve] |  |
| COc1cccc(C(=O)Nc2ccccc2N2CCCC2)c1 | inconclusive [inhibitor, partial curve] |  |
| COc1cccc(NC(=O)c2cc([N+](=O)[O-])ccc2NC(=O)CNCC2CCCO2)c1 (stereo not drawn) | inconclusive [inhibitor, single point] |  |
| O=C(Cn1sc2ccccc2c1=O)NC12CC3CC(CC(C3)C1)C2 | active: 1.84 µM |  |
| O=C(Nc1cccc(NC(=S)NC(=O)c2cccs2)c1)c1ccccc1 |  | inconclusive: -34.5% [inhibitor] |
| CCOC(=O)CC1C(=O)NCCN1S(=O)(=O)c1ccc(Cl)cc1Cl (stereo not drawn) | inactive |  |
| CCCCNC(=O)C(CC)Sc1nnc(-c2ccc(F)cc2)c(-c2ccc(F)cc2)n1 (stereo not drawn) | inconclusive [inhibitor, single point] |  |
| N#Cc1ccccc1OCCN1C(=O)c2ccccc2C1=O | inconclusive [inhibitor, full curve, poor fit] |  |
| Cc1cccc(NC(=O)c2c(NC(=O)c3cccs3)sc3c2CCC(C)C3)c1 (stereo not drawn) | active: 10.3 µM |  |
| CC(C)(C)Nc1ncnc2c1cnn2-c1ccccc1 | inconclusive [inhibitor, single point] |  |
| Cc1nn(C)cc1C(C)NC(=O)c1cc(COc2ccc(F)c(F)c2)on1 (stereo not drawn) | inconclusive [inhibitor, single point] |  |
| O=C(NCc1cc2ccccc2[nH]1)C1CCC(=O)N(CCCN2CCCC2=O)C1 (stereo not drawn) | inactive |  |
| COCCn1c(C)cc(C2=NNC(=Nc3ccccc3)SC2)c1C | active: 15.8 µM |  |
| O=S1(=O)N=C(N(CCO)/N=C/c2ccccc2)c2ccccc21 | inconclusive [inhibitor, partial curve] |  |
| Cc1ccc(CCNC(=O)CN2C(=O)CSc3ccc(S(=O)(=O)N4CCOCC4)cc32)cc1 | active: 20.6 µM |  |
| Cc1cc(/C=N/O)c(C)n1-c1ccc(Br)cc1 | inconclusive [inhibitor, single point] |  |
| COc1ccc(F)cc1S(=O)(=O)n1cnc2ccccc21 | inactive |  |

| SMILES | Potency | activity change, negative = growth inhibition |
| --- | --- | --- |
| COc1cc(C(=O)OCC(=O)NC(C)CCc2ccccc2)cc(OC)c1OC (stereo not drawn) | inconclusive [inhibitor, single point] |  |
| COc1cc(/C=C2\SC(=Nc3ccccc3)N(CCc3c[nH]c4ccccc34)C2=O)ccc1OC(C)C(=O)O (stereo not drawn) | inconclusive [inhibitor, partial curve, poor fit] |  |
| C=CCN(c1ccc(C(=O)N2CCN(c3ccc(F)cc3)CC2)cc1)S(C)(=O)=O | inconclusive [inhibitor, partial curve, poor fit] |  |
| COCCN(CC(=O)Nc1ccccc1C(F)(F)F)C(=O)/C=C/c1ccc2ccccc2n1 | inconclusive [inhibitor, single point] |  |
| COc1ccccc1NC(=S)NCCc1ccc(OC)c(OC)c1 | inactive |  |
| CC1(C)Cc2c(ccc3ccccc23)-c2nnc(-c3cccnc3)n21 | inconclusive [inhibitor, partial curve] |  |
| O=C(COC(=O)COc1ccc(Br)cc1)Nc1cccnc1Cl | inactive |  |
| CCC(CC)COC(=O)C1=C(C)NC(=O)NC1c1ccccc1Br (stereo not drawn) | inconclusive [inhibitor, single point] |  |
| CCOC(=O)C1=C(C)N=C(/N=C/N(C)C)SC1c1ccccc1 (stereo not drawn) | inconclusive [inhibitor, single point] |  |
| Cc1ccc(CNC(=O)c2ccc3c(=O)n(CC4CCCO4)c(=S)[nH]c3c2)cc1 (stereo not drawn) | inconclusive [inhibitor, single point] |  |
| CC(=O)Nc1ccc(OCc2cc(=O)n3ccccc3n2)cc1 | inactive |  |
| COc1ccc2[nH]cc(CCNc3ncnc4ccc(-c5ccoc5)cc34)c2c1 | inconclusive [inhibitor, single point] |  |
| O=C(c1ccc(Cn2cc([N+](=O)[O-])cn2)o1)N1CCCCCC1 | inactive |  |
| O=C(NCc1ccccc1)C(c1ccncc1)n1c(=O)c(-c2ccccc2)nc2ccccc21 (stereo not drawn) | inconclusive [inhibitor, single point] |  |
| COC(=O)[C@@]1(Cc2ccc(F)cc2)[C@H]2c3cc(C(=O)N(C)C)n(CCc4ccccn4)c3C[C@H]2CN1C(=O)c1ccccc1 | inconclusive [inhibitor, single point] |  |
| Cc1ccccc1NC(=S)NC(=O)c1cc(-c2ccccc2)nc2ccccc12 | inconclusive [inhibitor, single point] |  |
| COc1cc(C(c2c(C)[nH][nH]c2=O)c2c(C)[nH][nH]c2=O)cc([N+](=O)[O-])c1O | inconclusive [inhibitor, single point] |  |
| COc1ccc(CCNc2oc(COc3ccccc3Cl)nc2C#N)cc1OC | inconclusive [inhibitor, single point] |  |
| Cc1nn(CC(=O)NC(=O)NC2CCCCC2C)c(=O)c(C#N)c1C (stereo not drawn) | inconclusive [inhibitor, partial curve, poor fit] |  |
| [O-]/[N+](=C\c1ccco1)c1ccc(Cl)cc1 | inconclusive [inhibitor, single point] |  |
| Cc1cc(C(=O)N/N=C/c2ccc(-c3cccc(Br)c3)o2)n[nH]1 | inconclusive [inhibitor, single point] |  |
